Test results as given in article PMC6168566, “Bridging of membrane surfaces by annexin A2” (Scientific Reports, 2018).

Biological target: the molecule itself
Test: SDS-PAGE under non-reducing conditions; purified AnxA2 derivatives kept under oxidizing (non-reducing) conditions (WT: oxidation state after 1 and 5 weeks); disulfide-linked dimer against monomer

B1: annexin A2 (AnxA2), monomeric wild-type (WT), recombinant, carrying A66E (natural protein)
chain: not shown
modifications: starting methionine removed; the serine that follows it is N-terminally acetylated; under oxidizing conditions a disulfide through Cys-9 to a second AnxA2
notes: annexin A2, human; authentic, non-tagged protein; starting methionine removed and following serine acetylated; measured monoisotopic mass 38548.7867 Da; A66E was introduced for antibody detection; The mass fits the whole acetylated protein without the starting methionine; also called WT AnxA2; non-alkylated AnxA2; source: E. coli DH5α, purified (diethylaminoethyl- and carboxymethyl-cellulose ion …)
stoichiometry N: 2
